# Data: the supplement of paper PMC8728848
# This is one part of the list.
# B1: DC-Sign (Homo sapiens), Q9NNX6 (protein)
# chain: MSDSKEPRLQQLGLLEEEQLRGLGFRQTRGYKSLAGCLGHGPLVLQLLSFTLLAGLLVQVSKVPSSISQEQSRQDAIYQNLTQLKAAVGELSEKSKLQEIYQELTQLKAAVGELPEKSKLQEIYQELTRLKAAVGELPEKSKLQEIYQELTWLKAAVGELPEKSKMQEIYQELTRLKAAVGELPEKSKQQEIYQELTRLKAAVGELPEKSKQQEIYQELTRLKAAVGELPEKSKQQEIYQELTQLKAAVERLCHPCPWEWTFFQGNCYFMSNSQRNWHDSITACKEVGAQLVVIKSAEEQNFLQLQSSRSNRFTWMGLSDLNQEGTWQWVDGSPLLPSFKQYWNRGEPNNVGEEDCAEFSGNGWNDDKCNLAKFWICKKSAASCSRDEEQFLSPAPATPNPPPA
# Assays:
# Assay in all cases: glycan array binding signal (z-score within array); higher = stronger binding
# Conditions in all cases: glycan notation: IUPAC condensed, linker removed
# GlcNAc(b1-3)GalNAc = biological target: GlcNAc(b1-3)GalNAc
# Summary of the method: (§1)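 Columns mapping to the same glycan were averaged after glycan names were converted to IUPAC-condensed notation. The data come from 3228 arrays in the Consortium for Functional Glycomics database, limited to those with an available protein sequence. Binding is reported as a within-array Z-score averaged across arrays of one protein sequence and across linkers.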
# GlcNAc(b1-3)Man = biological target: GlcNAc(b1-3)Man
# Summary of the method: as §1
# [1] = biological target: GlcNAc(b1-3)[GlcNAc(b1-4)][GlcNAc(b1-6)]GlcNAc
# Summary of the method: as §1
# [2] = biological target: GlcNAc(b1-3)[GlcNAc(b1-6)]Gal(b1-4)GlcNAc
# Summary of the method: as §1
# [3] = biological target: GlcNAc(b1-3)[GlcNAc(b1-6)]GalNAc
# Summary of the method: as §1
# [4] = biological target: GlcNAc(b1-4)Gal(b1-4)GlcNAc
# Summary of the method: as §1
# GlcNAc(b1-4)GlcNAc = biological target: GlcNAc(b1-4)GlcNAc
# Summary of the method: as §1
# [5] = biological target: GlcNAc(b1-4)GlcNAc(b1-4)GlcNAc
# Summary of the method: as §1
# [6] = biological target: GlcNAc(b1-4)GlcNAc(b1-4)GlcNAc(b1-4)GlcNAc(b1-4)GlcNAc
# Summary of the method: as §1
# [7] = biological target: GlcNAc(b1-4)GlcNAc(b1-4)GlcNAc(b1-4)GlcNAc(b1-4)GlcNAc(b1-4)GlcNAc
# Summary of the method: as §1
# [8] = biological target: GlcNAc(b1-4)[GlcNAc(b1-6)]GalNAc
# Summary of the method: as §1
# [9] = biological target: GlcNAc(b1-6)Gal(b1-4)GlcNAc
# Summary of the method: as §1
# GlcNAc(b1-6)GalNAc = biological target: GlcNAc(b1-6)GalNAc
# Summary of the method: as §1
# [10] = biological target: GlcNAc6S(b1-3)Gal(b1-4)GlcNAc
# Summary of the method: as §1
# Kdn(a2-3)Gal(b1-3)GalNAc = biological target: Kdn(a2-3)Gal(b1-3)GalNAc
# Summary of the method: as §1
# Kdn(a2-3)Gal(b1-3)GlcNAc = biological target: Kdn(a2-3)Gal(b1-3)GlcNAc
# Summary of the method: as §1
# Kdn(a2-3)Gal(b1-4)Glc = biological target: Kdn(a2-3)Gal(b1-4)Glc
# Summary of the method: as §1
# Kdn(a2-3)Gal(b1-4)GlcNAc = biological target: Kdn(a2-3)Gal(b1-4)GlcNAc
# Summary of the method: as §1
# [11] = biological target: Kdn(a2-3)Gal(b1-4)[Fuc(a1-3)]GlcNAc
# Summary of the method: as §1
# Kdn(a2-6)Gal(b1-4)GlcNAc = biological target: Kdn(a2-6)Gal(b1-4)GlcNAc
# Summary of the method: as §1
# [12] = biological target: Man(a1-2)Man(a1-2)Man(a1-3)Man
# Summary of the method: as §1
# [13] = biological target: Man(a1-2)Man(a1-2)Man(a1-6)[Man(a1-3)]Man
# Summary of the method: as §1
# Man(a1-2)Man(a1-3)Man = biological target: Man(a1-2)Man(a1-3)Man
# Summary of the method: as §1
# [14] = biological target: Man(a1-2)Man(a1-3)[Man(a1-2)Man(a1-6)]Man
# Summary of the method: as §1
# [15] = biological target: Man(a1-2)Man(a1-3)[Man(a1-2)Man(a1-6)]Man(a1-6)[Man(a1-2)Man(a1-2)Man(a1-3)]Man
# Summary of the method: as §1
# [16] = biological target: Man(a1-2)Man(a1-3)[Man(a1-2)Man(a1-6)]Man(a1-6)[Man(a1-2)Man(a1-2)Man(a1-3)]Man(b1-4)GlcNAc(b1-4)GlcNAc
# Summary of the method: as §1
# [17] = biological target: Man(a1-2)Man(a1-3)[Man(a1-6)]Man(a1-6)[Man(a1-2)Man(a1-3)]Man(b1-4)GlcNAc(b1-4)GlcNAc
# Summary of the method: as §1
# [18] = biological target: Man(a1-2)Man(a1-6)[Man(a1-3)]Man(a1-6)[Man(a1-2)Man(a1-2)Man(a1-3)]Man
# Summary of the method: as §1
# [19] = biological target: Man(a1-2)Man(a1-6)[Man(a1-3)]Man(a1-6)[Man(a1-2)Man(a1-2)Man(a1-3)]Man(b1-4)GlcNAc(b1-4)GlcNAc
# Summary of the method: as §1
# Man(a1-3)[Man(a1-6)]Man = biological target: Man(a1-3)[Man(a1-6)]Man
# Summary of the method: as §1
# [20] = biological target: Man(a1-3)[Man(a1-6)]Man(a1-6)[Man(a1-2)Man(a1-3)]Man(b1-4)GlcNAc(b1-4)GlcNAc
# Summary of the method: as §1
# [21] = biological target: Man(a1-3)[Man(a1-6)]Man(a1-6)[Man(a1-3)]Man
# Summary of the method: as §1
# [22] = biological target: Man(a1-3)[Man(a1-6)]Man(a1-6)[Man(a1-3)]Man(b1-4)GlcNAc(b1-4)GlcNAc
# Summary of the method: as §1
# [23] = biological target: Man(a1-3)[Man(a1-6)]Man(b1-4)GlcNAc(b1-4)GlcNAc
# Summary of the method: as §1
# [24] = biological target: Man(a1-3)[Man(a1-6)]Man(b1-4)GlcNAc(b1-4)[Fuc(a1-6)]GlcNAc
# Summary of the method: as §1
# Man(a1-6)Man = biological target: Man(a1-6)Man
# Summary of the method: as §1
# Man(b1-4)GlcNAc = biological target: Man(b1-4)GlcNAc
# Summary of the method: as §1
# MurNAc(b1-4)GlcNAc = biological target: MurNAc(b1-4)GlcNAc
# Summary of the method: as §1
binder,measurement,setting,value
B1,glycan array binding signal (z-score),GlcNAc(b1-3)GalNAc,-0.145
same,glycan array binding signal (z-score),GlcNAc(b1-3)Man,-0.185
same,glycan array binding signal (z-score),[1],-0.139
same,glycan array binding signal (z-score),[2],-0.165
same,glycan array binding signal (z-score),[3],-0.101
same,glycan array binding signal (z-score),[4],-0.132
same,glycan array binding signal (z-score),GlcNAc(b1-4)GlcNAc,-0.109
same,glycan array binding signal (z-score),[5],-0.152
same,glycan array binding signal (z-score),[6],-0.174
same,glycan array binding signal (z-score),[7],-0.191
same,glycan array binding signal (z-score),[8],-0.125
same,glycan array binding signal (z-score),[9],-0.197
same,glycan array binding signal (z-score),GlcNAc(b1-6)GalNAc,-0.146
same,glycan array binding signal (z-score),[10],-0.185
same,glycan array binding signal (z-score),Kdn(a2-3)Gal(b1-3)GalNAc,-0.114
same,glycan array binding signal (z-score),Kdn(a2-3)Gal(b1-3)GlcNAc,-0.188
same,glycan array binding signal (z-score),Kdn(a2-3)Gal(b1-4)Glc,-0.144
same,glycan array binding signal (z-score),Kdn(a2-3)Gal(b1-4)GlcNAc,-0.167
same,glycan array binding signal (z-score),[11],-0.1
same,glycan array binding signal (z-score),Kdn(a2-6)Gal(b1-4)GlcNAc,-0.175
same,glycan array binding signal (z-score),[12],-0.101
same,glycan array binding signal (z-score),[13],4.51
same,glycan array binding signal (z-score),Man(a1-2)Man(a1-3)Man,-0.123
same,glycan array binding signal (z-score),[14],1.28
same,glycan array binding signal (z-score),[15],8.32
same,glycan array binding signal (z-score),[16],0.069
same,glycan array binding signal (z-score),[17],-0.156
same,glycan array binding signal (z-score),[18],0.027
same,glycan array binding signal (z-score),[19],0.25
same,glycan array binding signal (z-score),Man(a1-3)[Man(a1-6)]Man,-0.113
same,glycan array binding signal (z-score),[20],0.081
same,glycan array binding signal (z-score),[21],-0.129
same,glycan array binding signal (z-score),[22],-0.054
same,glycan array binding signal (z-score),[23],-0.173
same,glycan array binding signal (z-score),[24],-0.063
same,glycan array binding signal (z-score),Man(a1-6)Man,-0.171
same,glycan array binding signal (z-score),Man(b1-4)GlcNAc,-0.196
same,glycan array binding signal (z-score),MurNAc(b1-4)GlcNAc,0.01
